Experimental data as given in PubChem BioAssay AID1508623 (National Center for Advancing Translational Sciences (NCATS), 2021).
Among all 48,000 compounds or so, about 450 (0.94%) were called active. About 19% were inconclusive and are not listed. The call rests on the fitted dose curve; in most records, active means well fitted inhibition curve with a large enough effect; inconclusive means small, poorly fitted or top-dose-only effect; inactive means no such curve, though single readings can be large or run the other way. The list shows a part of the results.

Assay: Primary qHTS for Identification of Small Molecule Inhibitors of Huntingtin Promoter Activity; further: nearly all actives have a fitted effect of over 50% in size
Details: HEK293 HTT promoter firefly luciferase reporter (activity 0% = vehicle and -100% = no light), 24 h; series mostly up to 57.5 µM; activity change, negative = inhibition: at the top concentration
Outline: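 Quantitative HTS used concentration series of up to 57.5 uM final on HEK293 luciferase reporter cells, 24 h at 37 degrees C. Readout was Dual-Glo firefly luminescence.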
Potency means the concentration at half of the fitted maximal effect.

For `Cc1ccc2nc(-c3cc(NC(=O)c4ccc5c(c4)OCCO5)ccc3Cl)oc2c1`, which “activity change, negative = inhibition” value is on record?
The value was inactive: -6.37%.

Which “activity change, negative = inhibition” value does the source give for `Cc1ccc(N2CC(c3nc4ccccc4n3CCC3CCCCC3)CC2=O)cc1` (stereo not drawn) here?
The value was inactive: -4.71%.

For `CCOc1ccc(C(CC(=O)O)N2Cc3ccccc3C2=O)cc1OC` (stereo not drawn), which “activity change, negative = inhibition” value is on record?
Its value is inactive: -4.73%.

With `COc1ccc(C2c3c(oc4ccc(F)cc4c3=O)C(=O)N2Cc2ccc3c(c2)OCO3)cc1` (stereo not drawn) as the compound, how does the “activity change, negative = inhibition” value read?
The value was inactive: 0.0356%.

With `N#C/C(=C\c1ccccc1)c1nc(-c2cc3cc(Br)ccc3oc2=O)cs1` as the compound, how does the activity change, negative = inhibition read?
Its activity change, negative = inhibition is inactive: -28% [at 11.5 µM].

With `Cc1cccc(N(C)C(=O)c2cc(S(=O)(=O)N3CCCC3)cn2C)c1` as the compound, how does the “activity change, negative = inhibition” value read?
The value was inactive: -2.71%.

With `COC(=O)c1ccccc1NC(=O)NCCc1c(C)nn(C)c1C` as the compound, how does the “activity change, negative = inhibition” value read?
Its value is inactive: -11.9%.

Which “activity change, negative = inhibition” value does the source give for `COc1cccc(N2CCN(S(=O)(=O)c3ccc4[nH]c5c(c4c3)CCCC5)CC2)c1` here?
The value was inactive: -0.249%.

For `O=C(Nc1ccccc1Br)C1CCCN(S(=O)(=O)c2cccc3nsnc23)C1` (stereo not drawn), which “activity change, negative = inhibition” value is on record?
Its value is inactive: -18.7%.

With `Cc1cccc(NC(=O)c2c(NC(=O)C(F)(F)F)sc3c2CCCCC3)c1` as the compound, how does the Potency read?
Its Potency is active: 2 µM.

Which “activity change, negative = inhibition” value does the source give for `O=C(NCCS(=O)(=O)N1CCN(c2ccccc2)CC1)C(c1ccccc1)c1ccccc1` here?
Its value is inactive: -20%.

For `O=C1CC(c2ccccc2)Cc2[nH]c(=O)c(C(=O)Nc3cccc(F)c3)cc21` (stereo not drawn), which “activity change, negative = inhibition” value is on record?
The value was inactive: -27.4%.

For `O=C(CSc1nc2c([nH]c3ccccc32)c(=O)n1-c1ccc(F)cc1)N1CCCCC1`, which “activity change, negative = inhibition” value is on record?
The value was inactive: -4.34%.

Which “activity change, negative = inhibition” value does the source give for `CCc1ccc(OCC(=O)N(Cc2ccc(Cl)cc2)C2CCS(=O)(=O)C2)cc1` (stereo not drawn) here?
Its value is inactive: -25.7%.

For `Cn1c(NCCO)nc2c1c(=O)n(Cc1ccccc1Cl)c(=O)n2C`, which “activity change, negative = inhibition” value is on record?
The value was inactive: 4.08%.

With `Cc1nnc(C(=O)NC(C)(C)c2nc(C(=O)NCc3ccc(F)cc3)c(O)c(=O)n2C)o1` as the compound, how does the activity change, negative = inhibition read?
The activity change, negative = inhibition was “inactive”.

For `COc1cccc(Oc2nc3c(c(=O)n(Cc4ccccc4F)c(=O)n3C)n2C)c1`, which activity change, negative = inhibition is on record?
Its activity change, negative = inhibition is inactive: 34% [at 11.5 µM].

Which “activity change, negative = inhibition” value does the source give for `COc1cccc(N2CCN(C(=O)c3c(C)oc4ncnc(N5CCOCC5)c34)CC2)c1` here?
The value was inactive: -10.7%.

With `Cc1c(C(=O)N(C)C)sc2c1c(=O)n(-c1ccc(Cl)c(Cl)c1)c(=O)n2CC(=O)Nc1cccc(C(F)(F)F)c1` as the compound, how does the “activity change, negative = inhibition” value read?
The value was inactive: -0.722%.

Which “activity change, negative = inhibition” value does the source give for `CC(C)c1ccc(NC(=O)CN(C)S(=O)(=O)c2ccc3c(c2)c(=O)n(C)c(=O)n3C)cc1` here?
Its value is inactive: -19.2%.

For `CCOC(=O)Cc1ccc(NC(=O)NCc2ccc3c(c2)CCN3C(=O)CC)cc1`, which “activity change, negative = inhibition” value is on record?
The value was inactive: -40%.

With `O=C(CCS(=O)(=O)c1cc(Br)cc2c1N(C(=O)C1CC1)CC2)Nc1ccc(Br)cc1F` as the compound, how does the “activity change, negative = inhibition” value read?
The value was inactive: -7.73%.

For `CCc1ccccc1N(C)C(=O)Cn1cnc2sc(C)c(S(=O)(=O)N3CCN(c4ncccn4)CC3)c2c1=O`, which “activity change, negative = inhibition” value is on record?
The value was inactive: -12%.

For `Cc1ccc(NS(=O)(=O)c2cc(Br)cc3c2N(C(=O)C2CC2)CC3)cc1C`, which Potency is on record?
The Potency was active: 5.62 µM.

For `COC(=O)c1ccc(Cn2nnc3sc4c(c3c2=O)CCC(C)C4)cc1` (stereo not drawn), which “activity change, negative = inhibition” value is on record?
Its value is inactive: 33.2%.

Which “activity change, negative = inhibition” value does the source give for `O=C(CCCN1C(=O)C(c2ccccc2)Oc2cccnc21)Nc1ccc(Br)cc1F` (stereo not drawn) here?
The value was inactive: -16.3%.

With `COc1ccc2c(CNCCc3cccs3)c(C(=O)O)n(Cc3ccccc3)c2c1` as the compound, how does the “activity change, negative = inhibition” value read?
Its value is inactive: -20.6%.

For `CCOc1ccc(CCNC(=O)c2cc3c(=O)[nH]c4ccc(C)cc4c3s2)cc1OCC`, which “activity change, negative = inhibition” value is on record?
Its value is inactive: -17.1%.

For `COc1ccc(-c2nc(SCC(=O)NCCc3ccc(OC)c(OC)c3)n[nH]2)cc1`, which “activity change, negative = inhibition” value is on record?
The value was inactive: 13.8%.

Which “activity change, negative = inhibition” value does the source give for `O=C(NC1CCCc2ccccc21)c1ccc2c(c1)sc1nc(-c3ccc(F)cc3)cn12` (stereo not drawn) here?
The value was inactive: 10%.

For `Cc1ccc(Cl)cc1NC(=O)C1CCC(CNS(=O)(=O)c2cccc3nsnc23)CC1` (stereo not drawn), which “activity change, negative = inhibition” value is on record?
Its value is inactive: -9.29%.

With `CC(=O)N(Cc1cccnc1)c1nc2c(C)c(C)ccc2s1` as the compound, how does the “activity change, negative = inhibition” value read?
Its value is inactive: -26.7%.

For `CCc1ccc2c(c1)NC(c1cccs1)=NC(c1ccc(F)cc1)=N2`, which “activity change, negative = inhibition” value is on record?
Its value is inactive: 16.1%.

For `O=Cc1ccc(O)c(O)c1O`, which “activity change, negative = inhibition” value is on record?
The value was inactive: -8.2%.

With `Cc1ccc2oc3c(c(=O)c2c1)C(c1ccc(F)cc1)N(Cc1ccc2c(c1)OCO2)C3=O` (stereo not drawn) as the compound, how does the “activity change, negative = inhibition” value read?
The value was inactive: -3.91%.

Which “activity change, negative = inhibition” value does the source give for `CC(=O)c1cccc(NC(=O)c2sc(-n3nc(C)c(Cc4ccc5c(c4)OCO5)c3C)nc2C)c1` here?
Its value is inactive: -19.6%.

With `COc1ccccc1CCNC(=O)C(=O)NCC(c1ccc2c(c1)OCO2)N1CCOCC1` (stereo not drawn) as the compound, how does the “activity change, negative = inhibition” value read?
Its value is inactive: -28%.

Which “activity change, negative = inhibition” value does the source give for `COc1ccccc1OCC(=O)NCC(c1ccc(Cl)cc1)N1CCCCC1` (stereo not drawn) here?
The value was inactive: -20.1%.

For `COc1cccc(CNC(=O)C(=O)Nc2c3c(nn2-c2ccccc2)CSC3)c1`, which “activity change, negative = inhibition” value is on record?
Its value is inactive: -25.7%.

Which “activity change, negative = inhibition” value does the source give for `CCN(C(=O)C1CCN(S(=O)(=O)c2ccc3c(c2)CCCN3C(C)=O)CC1)c1cccc(C)c1` here?
The value was inactive: -22.9%.

Which “activity change, negative = inhibition” value does the source give for `CCOC(=O)c1c(NC(C)=O)c2c3c(sc2n1Cc1nc(-c2cccc(Cl)c2)oc1C)CCCC3` here?
Its value is inactive: -12.2%.

With `CCN(CC)C(=O)CSc1nc(-c2ccccc2F)nc2c1Cc1c(CO)cnc(C)c1O2` as the compound, how does the “activity change, negative = inhibition” value read?
The value was inactive: -23.6%.

With `CC(C)(C)OC(=O)N1CCC(c2c(C(=O)N3CCCCC3)cnn2-c2ccc(Cl)cc2)CC1` as the compound, how does the “activity change, negative = inhibition” value read?
The value was inactive: -8.64%.

For `COC(=O)c1ccccc1NC(=O)CSc1nc2ccsc2c(=O)n1CCC(C)C`, which “activity change, negative = inhibition” value is on record?
The value was inactive: -3.39%.

With `CCOc1cc(C(=O)NCCc2csc3nc(-c4ccc(C)cc4)nn23)cc(OCC)c1OCC` as the compound, how does the “activity change, negative = inhibition” value read?
Its value is inactive: -16.4%.

For `COc1ccc(Cc2nc3ccccc3[nH]c2=O)cc1`, which “activity change, negative = inhibition” value is on record?
Its value is inactive: -10.5%.

With `C=Cc1ccc(Cn2c(C)c(CNCc3cccc(Br)c3)c(C(=O)O)c2C)cc1` as the compound, how does the “activity change, negative = inhibition” value read?
Its value is inactive: 16.5%.

With `Cc1cccc(Cn2c(CNS(=O)(=O)c3ccc4c(c3)CCCC4)nc3cccnc32)c1` as the compound, how does the “activity change, negative = inhibition” value read?
Its value is inactive: -19.8%.

With `C[C@@H]1C[C@H]2[C@@H]3C[C@H](F)C4=CC(=O)C=C[C@]4(C)[C@@]3(F)[C@@H](O)C[C@]2(C)[C@@]1(O)C(=O)CO` as the compound, how does the “activity change, negative = inhibition” value read?
The value was inactive: 10%.

Which “activity change, negative = inhibition” value does the source give for `CCOC(=O)c1c(S(=O)(=O)N2CCCC(C(=O)NCc3ccc(Cl)cc3)C2)c(C)n(C)c1C` (stereo not drawn) here?
The value was inactive: -18.2%.

For `COc1ccc(F)cc1S(=O)(=O)NCCc1csc2nc(-c3cccc(C)c3)nn12`, which “activity change, negative = inhibition” value is on record?
Its value is inactive: -5.72%.

With `O=C(c1ccccc1Cl)N1c2ncnn2C2(CCCCC2)[C@@H]2CCCC[C@@H]21` as the compound, how does the “activity change, negative = inhibition” value read?
The value was inactive: -36.9%.

Which “activity change, negative = inhibition” value does the source give for `COC(=O)c1ccc(OCC2c3cc(OC)c(OC)cc3CCN2C(=O)COc2ccc(Cl)cc2)cc1` (stereo not drawn) here?
Its value is inactive: -26.1%.

Which “activity change, negative = inhibition” value does the source give for `Cc1cccc(NC(=O)CCS(=O)(=O)c2ccc3c(c2)n(C)c(=O)c(=O)n3C)c1C` here?
The value was inactive: -0.551%.

With `CCOC(=O)C1CCCN(C(=O)c2nn(-c3ccc(OC)cc3)c(=O)c3c2c2ccccc2n3C)C1` (stereo not drawn) as the compound, how does the “activity change, negative = inhibition” value read?
Its value is inactive: -10.9%.

For `Nc1nc(Nc2ccccc2F)sc1C(=O)c1ccc(Cl)cc1`, which “activity change, negative = inhibition” value is on record?
Its value is inactive: 79.2%.

For `Cc1ccc(-n2c(=O)c3c(C)c(C(=O)N(C)C)sc3n(CC(=O)C(C)(C)C)c2=O)cc1C`, which “activity change, negative = inhibition” value is on record?
Its value is inactive: -0.893%.

For `Cc1cc2c(cc1CC(=O)c1sccc1S(=O)(=O)Nc1onc(C)c1Cl)OCO2`, which “activity change, negative = inhibition” value is on record?
Its value is inactive: -1.02%.
